From the RNAGym collection of RNA variant scans (doi:10.7554/elife.90254)
Read counts are not given, so values of variants with three or more changes are uncertain.

B1: LINE1-full (parent)
chain: UACGUAGGUGGUUUUCCCCUGAUAGUGCUAAGGGGGCCUGGAAGUUUGGACUGGGCAGAGCUCAACACAGCGUGGCAAAGUGGCUGUGGCUAGACUGCCUCUCUGGAUUCCUCGUCACUCAGCAGGGCAUCUCUGAGAGAAAUGCC

Variants of: B1
Experiment: self-cleavage, relative activity (ratio to wild type); higher = more cleavage; in vitro, sequencing; the parent is a self-cleaving ribozyme

Variant | self-cleavage
G34C A59G G74U A107C A129G | 0
U14C U52G U119C A121U | 1.15
U47A U52A A77U U109A A138G | 1.31
U104A U119A A136G | 1.48
U102C U104G G122A | 1.19
A69G A94U U108C | 0
A24C A107G A138C | 0.67
U26C U112A A142G | 1.6
A24G C63A A107G | 0.09
U12C A24G U45C | 1.31
G74A G106C U143C | 1.15
A24G A79U U108C A136G | 0
G10A U20A U47C | 1.11
U15C U45C A78G C145U | 1.46
A2G U14C A94G | 0.45
U12C U14C U85A | 0.22
U45C A138U A142U | 0.64
A31U G83A A136G | 0.82
U45A A94G A138U | 0.38
U5C U45A U87A U132A U134A | 0.05
A2U C95G A107G C113A A141G | 0

Variant | self-cleavage
A2U U13G U87A A141G | 0.3
U14C A78G A79G | 2.51
A42G A64U A65U A142G | 0.05
A57G A64U G83A A129U | 0.06
C56U A117G U119C A138U | 0.19
A43G A59U U73C | 1.35
U13C A67G G88U A117G | 0
U5C U13C U39A A57U A65U A117C | 0
G35A A67G A79G | 0.59
A77U U109C C128U | 1.34
A2G A22G A43G G48A U96C | 0.33
A57U A67G U119C | 0
U13C A78U U108C A138G | 2.04
A2G G55A U91C G139A | 0
A79G U81C G139U | 0.76
U15A A107G U132C | 0.84
U13A U100C U143C | 1.22
G58A C84A U85A | 0.03
U109C A121G U132C | 0
G34A A124C G139U | 1.21
U91C U102C A107G | 0.42

Variant | self-cleavage
A57G U87C A117U U130C | 0
U12A A42G U134C | 0.79
U23C U26C U134A | 0.86
U14A C19A U20C | 0.96
U13A U26A A77U | 1.25
G36A U112C A141G | 1.43
G32A A57G U143C | 0.77
U13G U102C G122A G125A | 1.17
U96C A140G A141G A142G | 0
A22U G97A U104C A117G | 0.25
U39C U73C A124G | 0.86
A43G U45C G54U | 0.31
A31U C101U U119C | 0.97
C17U U29C U47A A77U A141G | 0.65
U13C U73C C84A U87A G89C A142G | 0.08
A22U A69U C120A | 0.07
U14C G35A U87A | 0.11
U5C G74A A129U | 1.04
U47C U91C U115A U143C | 2.21
U14C G35U A138G | 1.05
U46C U73A A142G | 1.84

Variant | self-cleavage
U45G A77U U81A A141G | 2.07
A43G A69G U96A | 0.07
C3U U29C G55U A59U A138U | 0.6
U15A U96C G122C | 0.08
U14G U115C A136U | 1.58
U108A U109C U112C U134A | 1.97
U20G U52C U96A | 0.31
U1C U15A A79G U143C G144A | 0.39
A6G U26C U62C | 0
U13C A50G U132C | 0.45
U39C A42G A65G | 0
A22G G74A U115C | 1.98
U9A U45C U96C A140G | 0.24
U12C G32A U104G | 0.93
U12G C38A A42U | 0.53
U5C A50G C146U | 1.08
U39C A42G U85C G97A | 0.07
U13C U47A A142U | 1.22
U13A A77U U87G | 0.08
U96C U112C G126U C145U | 0.08
